Measured values published in the supplement of paper PMC8728848.
The other results are listed elsewhere or left out.

Legend:
Experiment in all cases: glycan array binding signal (z-score within array); higher = stronger binding
Conditions in all cases: glycan notation: IUPAC condensed, linker removed
Glc(b1-6)Glc = biological target: Glc(b1-6)Glc
Outline: (§1)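 From the Consortium for Functional Glycomics database, 3228 arrays were curated, keeping only those whose protein sequence was available. Binding is given as a within-array Z-score averaged across arrays sharing a protein sequence and across linkers. Negative Z-scores can be read as non-binding.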

GlcA(b1-3)Gal = biological target: GlcA(b1-3)Gal
Outline: as §1

GlcA(b1-3)GlcNAc = biological target: GlcA(b1-3)GlcNAc
Outline: as §1

GlcA(b1-6)Gal = biological target: GlcA(b1-6)Gal
Outline: as §1

[1] = biological target: GlcA3S(b1-3)Gal(b1-4)GlcNAc(b1-2)Man
Outline: as §1

[2] = biological target: GlcA3S(b1-3)Gal(b1-4)GlcNAc(b1-3)Gal(b1-4)Glc
Outline: as §1

[3] = biological target: GlcNAc(a1-3)Gal(b1-4)GlcNAc
Outline: as §1

[4] = biological target: GlcNAc(a1-4)Gal(b1-3)GlcNAc
Outline: as §1

[5] = biological target: GlcNAc(a1-4)Gal(b1-4)GalNAc
Outline: as §1

[6] = biological target: GlcNAc(a1-4)Gal(b1-4)GlcNAc
Outline: as §1

[7] = biological target: GlcNAc(a1-4)Gal(b1-4)GlcNAc(b1-3)Gal(b1-4)Glc
Outline: as §1

[8] = biological target: GlcNAc(a1-4)Gal(b1-4)GlcNAc(b1-3)Gal(b1-4)GlcNAc
Outline: as §1

[9] = biological target: GlcNAc(a1-4)Gal(b1-4)GlcNAc(b1-3)Gal(b1-4)GlcNAc(b1-3)Gal(b1-4)GlcNAc
Outline: as §1

[10] = biological target: GlcNAc(a1-4)Gal(b1-4)GlcNAc(b1-3)Gal(b1-4)[Fuc(a1-3)]GlcNAc(b1-3)Gal(b1-4)[Fuc(a1-3)]GlcNAc
Outline: as §1

[11] = biological target: GlcNAc(a1-6)Gal(b1-4)GlcNAc
Outline: as §1

[12] = biological target: GlcNAc(b1-2)Gal(b1-3)GalNAc
Outline: as §1

[13] = biological target: GlcNAc(b1-2)Man(a1-3)[GlcNAc(b1-2)Man(a1-6)]Man(b1-4)GlcNAc(b1-4)GlcNAc
Outline: as §1

[14] = biological target: GlcNAc(b1-2)Man(a1-3)[GlcNAc(b1-2)Man(a1-6)]Man(b1-4)GlcNAc(b1-4)[Fuc(a1-6)]GlcNAc
Outline: as §1

[15] = biological target: GlcNAc(b1-2)Man(a1-3)[GlcNAc(b1-4)][GlcNAc(b1-2)Man(a1-6)]Man(b1-4)GlcNAc(b1-4)GlcNAc
Outline: as §1

[16] = biological target: GlcNAc(b1-2)Man(a1-3)[GlcNAc(b1-4)][GlcNAc(b1-2)Man(a1-6)]Man(b1-4)GlcNAc(b1-4)[Fuc(a1-6)]GlcNAc
Outline: as §1

[17] = biological target: GlcNAc(b1-2)[GlcNAc(b1-4)]Man(a1-3)[GlcNAc(b1-2)Man(a1-6)]Man(b1-4)GlcNAc(b1-4)GlcNAc
Outline: as §1

[18] = biological target: GlcNAc(b1-2)[GlcNAc(b1-4)]Man(a1-3)[GlcNAc(b1-4)][GlcNAc(b1-2)Man(a1-6)]Man(b1-4)GlcNAc(b1-4)GlcNAc
Outline: as §1

B1: PX14367B-bvu-516-23-516 (Bacteroides vulgatus) (protein)
chain: LDTIPTTYVDAGSVFGKTGDAEKVLNGGWNYLMETFNSYANPGYGAMLRANDAMGSDVVLNSKYGFRTHNEFSAIYGKGGTNTLSWLLAYRVINDCNGVLDNIDAAEGTQADRNRIKGQALALRGFLYLHLASCYSFAIDKDPDAVCAPIYTQSTDETIAAEGKPASSVSEVYAQSINDLEEALELIPETYVRDAKHKIDNEVVLGILSRACLYARQWEKAKTYSDKLLAKDNYLMTESEYKAGFNSVDNKEWIWGHAQTNDQSNASYQFHYLDTTTKGSYYYSFNVDPYFRDLFEDGDYRKEMLFWATDPGADVESAAYVWMRNSKFRFRDIENQLGDIVLMRVAEIYLINAEAKAHLNDPDAINKLNDLKTARGAKTIHTNLSQQDLLETIWLERRKELWGEGFSLIDIIRNQQTVVRNAYPEGPIDYIYTDENGQTHTLKKKTQGHRFFNFPDKSAFCPNSKYYLYRITDSEELANKNLYKDHPKLSIYTK
Glc(b1-6)Glc
  glycan array binding signal (z-score): -0.165
GlcA(b1-3)Gal
  glycan array binding signal (z-score): 0.749
GlcA(b1-3)GlcNAc
  glycan array binding signal (z-score): -0.314
GlcA(b1-6)Gal
  glycan array binding signal (z-score): -0.262
[1]
  glycan array binding signal (z-score): -0.233
[2]
  glycan array binding signal (z-score): -0.35
[3]
  glycan array binding signal (z-score): -0.357
[4]
  glycan array binding signal (z-score): -0.315
[5]
  glycan array binding signal (z-score): -0.344
[6]
  glycan array binding signal (z-score): -0.192
[7]
  glycan array binding signal (z-score): -0.119
[8]
  glycan array binding signal (z-score): -0.2
[9]
  glycan array binding signal (z-score): -0.269
[10]
  glycan array binding signal (z-score): 0.017
[11]
  glycan array binding signal (z-score): -0.279
[12]
  glycan array binding signal (z-score): -0.305
[13]
  glycan array binding signal (z-score): -0.267
[14]
  glycan array binding signal (z-score): -0.22
[15]
  glycan array binding signal (z-score): -0.304
[16]
  glycan array binding signal (z-score): -0.049
[17]
  glycan array binding signal (z-score): -0.294
[18]
  glycan array binding signal (z-score): -0.334
